# Measured values from PubChem BioAssay AID1345082 (National Center for Advancing Translational Sciences (NCATS), 2018).
# The campaign covered roughly 94,000 compounds. About 4,000 (4.3%) were called active. The shares of active, inactive and inconclusive entries below differ from those in the screen. The call rests on the fitted dose curve; in most records, active means well fitted inhibition curve with a large enough effect; inconclusive means small, poorly fitted or top-dose-only effect; inactive means no such curve, though single readings can be large or run the other way. Potencies beside an inconclusive call are fits to weak or partial responses and may not hold up.
# Assay: Cytotoxic Profiling in NIH 3T3 Cell Line of Diverse Libraries Using Quantitative High-Throughput Screening; further: nearly all actives have a fitted effect of over 55% in size
# Conditions: NIH 3T3 viability, CellTiter-Glo ATP luminescence, 48-72 h; series mostly up to 96.7 µM
# Procedure, shortened: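 NIH 3T3 cells at 400 cells/well received 23 nL of compound by pintool and were incubated 48 or 72 h at 37 °C. Viability was read as ATP-coupled CellTiter-Glo luminescence.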
# Potency means the concentration at half of the fitted maximal effect; tags describe the fitted curve by direction and shape.
row,Structure (SMILES),Potency
1,COc1ccc2n[nH]c(CN3CCC(C(C)N4CCCC4)CC3)c2c1 (stereo not given),inactive
2,O=C(NC1CCCN(c2ccc3nnc(-c4ccccc4)n3n2)C1)c1ccccc1 (stereo not given),active: 28.2 µM
3,Cc1ccc(-c2cc(N3CCCN(C(=O)c4ccsc4)CC3)n[nH]2)cc1C,"inconclusive: 50.1 µM [inhibitor, single point]"
4,CCN1c2cc(C(=O)Nc3ccc(Br)cc3)ccc2C(=O)N2CCCCCC21 (stereo not given),active: 39.8 µM
5,O=C(NCc1cccc(Cl)c1)c1ccc2oc(-c3ccccn3)nc2c1,inactive
6,CS(=O)(=O)N1CCC(C2CCN(C(=O)Cc3ccc(Cl)cc3)C2)CC1 (stereo not given),"inconclusive: 56.2 µM [inhibitor, partial curve, poor fit]"
7,CS(=O)(=O)N(C1CC1)C1CCOC2(CCN(C(=O)Nc3ccccc3)CC2)C1 (stereo not given),inactive
8,O=Cc1cccc(-c2ccc(F)cc2F)c1,"inconclusive: 100 µM [inhibitor, partial curve, poor fit]"
9,O=C(Nc1cccc(F)c1)N1CCC2(CC1)CC(OCC1CC1)CCO2 (stereo not given),"inconclusive: 50.1 µM [inhibitor, single point]"
10,CC(C)C[C@H](CO)NC(=O)C[C@@H]1c2nc(NC(=O)c3ccco3)sc2C[C@@H]2[C@](C)(CO)[C@H](O)CC[C@]21C,inactive
11,O=C1c2c(-c3nc(-c4ccsc4)no3)nnn2CCN1CCOc1ccc(F)cc1,"inconclusive: 50.1 µM [inhibitor, partial curve, poor fit]"
12,CC(=O)NC1CC2(CCN(C(=O)Cc3c[nH]c4ccccc34)CC2)c2ccccc21 (stereo not given),inactive
13,CCOC(=O)C1CCCN(C(=O)Cc2ccc(N(Cc3ccccc3)C(=O)c3ccco3)cc2)C1 (stereo not given),"inconclusive: 39.8 µM [inhibitor, partial curve, poor fit]"
14,Cc1cnc(C(=O)NCCc2ncc(C)n2C2CCC2)cn1,inactive
15,Cc1ccccc1CC(=O)N1CC(C(=O)NCCc2ccncc2)C2(CCOCC2)C1 (stereo not given),inactive
16,Oc1ccc(-c2nc(C3CC3)nc3c2CCN(Cc2cccc(F)c2)CC3)cc1,"inconclusive: 70.8 µM [inhibitor, single point]"
17,Cc1csc(Nc2ccc3c(n2)CN(Cc2ccccc2C)C(=O)CO3)n1,active: 25.1 µM
18,CC(C)NC(=O)NC1CCCN(Cc2ccc(-c3cncnc3)cc2)C1 (stereo not given),inactive
19,O=C1CCCCC(Cc2ccccc2)(C(=O)NC2CCS(=O)(=O)C2)N1 (stereo not given),inactive
20,COc1ccc(NC(=O)CC2CCOCC2)cc1,inactive
21,Cc1noc(C)c1CCC(=O)NC1CCCc2c1[nH]c1ccc(F)cc21 (stereo not given),"inconclusive: 44.7 µM [inhibitor, partial curve, poor fit]"
22,CCn1nccc1C(=O)NCc1cc(C)cc2c(C)c(-c3ccccc3)[nH]c12,active: 39.8 µM
23,Cc1nc(-c2ccc(Cl)cc2)n(Cc2ccccc2)c(=O)c1CCO,"inconclusive: 50.1 µM [inhibitor, partial curve, poor fit]"

row,Structure (SMILES),Potency
1,O=C(Cn1cccc1-c1nc(-c2ccccc2)no1)NCc1ccc(F)cc1Cl,"inconclusive: 44.7 µM [inhibitor, partial curve, poor fit]"
2,CC1CCN(c2ccc(-c3cccc(N)c3)nn2)CC1,active: 31.6 µM
3,CC(C)C[C@@H]1N[C@H](C(=O)O)Cc2cn(Cc3nccn3C)c3cccc1c23,inactive
4,CCOC(=O)CNC(=O)c1ccc2c(c1)N(S(C)(=O)=O)CC2,inactive
5,Cc1nn(-c2ccccc2)c2c1C(C1CC1)N(C1CN(C(=O)C3CCCC3)C1)C2=O (stereo not given),active: 35.5 µM
6,O=C1[C@H]2CN(Cc3ccc(C(F)(F)F)cc3)C[C@H]2C(=O)N1CCc1ccccc1,active: 22.4 µM
7,CC(C)(C)CC(=O)Nc1nc2c(s1)C[C@@H]1[C@](C)(CO)[C@H](O)CC[C@@]1(C)[C@@H]2CC(=O)NC1CCCC1,"inconclusive: 50.1 µM [inhibitor, partial curve, poor fit]"
8,COc1ccc(-c2n[nH]c3c2CC(=O)N(Cc2ccccn2)C3)cc1F,"inconclusive: 79.4 µM [inhibitor, partial curve]"
9,CC(C)c1noc(-c2cn(C3CCN(C(=O)c4ccc5ccccc5n4)C3)nn2)n1 (stereo not given),"inconclusive: 31.6 µM [inhibitor, partial curve]"
10,Cn1cc(-c2nc(N3CCOCC3)cc3c2CN(c2ccccc2)C3=O)cn1,"inconclusive: 3.16 µM [inhibitor, full curve, poor fit]"
11,Cc1nnc2ccc(N3CCC(N[S+](C)(=O)[O-])CC3)nn12,inactive
12,O=C(c1nnc(CNc2ccc(OC(F)(F)F)cc2)n1-c1ccccc1)N1CCC[C@@H]1CN1CCCC1,"inconclusive: 50.1 µM [inhibitor, partial curve, poor fit]"
13,COc1ccc(-n2nc(C)c([C@@H]3C=C[C@@H](NC(=O)NC4CCCCC4)C3)c2C)cc1,"inconclusive: 112 µM [inhibitor, partial curve, poor fit]"
14,COCCn1c(=O)c(C(=O)N2CCN(C(=O)c3ccccc3C)CC2)nc2cccnc21,inactive
15,CCNC(=O)N1CCc2c(sc3ncnc(N(C)C)c23)C1,"inconclusive: 50.1 µM [inhibitor, partial curve, poor fit]"
16,COCCN1Cc2[nH]nc(-c3cccc(COC)c3)c2CC1=O,"inconclusive: 100 µM [inhibitor, partial curve, poor fit]"
17,COc1ccc(-c2cn3c(n2)CO[C@@H](CNS(=O)(=O)c2ccc(C)cc2)C3)cc1,inactive
18,COc1ccc(-c2cc(-c3ccc(N4CCOCC4)nc3)cn3cncc23)cn1,"inconclusive: 89.1 µM [inhibitor, partial curve]"
19,CCC1=C(C(=O)OC)C(c2ccccc2OC)N2C(CC(=O)NCC3CC3)=CSC2=N1 (stereo not given),inactive
20,Cc1ccc([S+](=O)([O-])N2CCN(c3nccc(Nc4ccccc4Cl)n3)CC2)cc1,"inconclusive: 25.1 µM [inhibitor, full curve]"
21,Cc1cccc(Nc2nc(N)nc(CN3CCOCC(O)C3)n2)c1 (stereo not given),inactive
22,O=C(Cc1c(F)cccc1Cl)N1CCN(c2cc(-c3cccs3)[nH]n2)CC1,"inconclusive: 39.8 µM [inhibitor, partial curve, poor fit]"
